# Test results from publication PMC12136788.
# The list shows a part of the results.
# T1: UNK ZnF1-6 (called full-length) (human, UniProt Q9C0B0 30-357)
# T1 sequence: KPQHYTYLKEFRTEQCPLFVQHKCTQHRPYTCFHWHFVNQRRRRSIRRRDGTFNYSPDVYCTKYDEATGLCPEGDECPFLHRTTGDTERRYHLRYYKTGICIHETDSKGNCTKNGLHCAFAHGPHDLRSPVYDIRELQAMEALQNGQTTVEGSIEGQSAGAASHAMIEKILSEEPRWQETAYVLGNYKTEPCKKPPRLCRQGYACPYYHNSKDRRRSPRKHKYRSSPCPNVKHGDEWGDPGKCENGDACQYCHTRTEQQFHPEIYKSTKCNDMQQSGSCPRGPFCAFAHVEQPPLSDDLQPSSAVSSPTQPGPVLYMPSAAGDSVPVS
# B1: chr6:149889094:149889339:-|three_prime_utr|ENSG00000164520|control|control|control (ssRNA)
# RNA: GGGAGUUCUACAGUCCGACGAUCGGCAGCUCCCUUUAAAGGUCAAAAGCCUUCCCUGUGUGGGUGUCAGUGUGUGUGUGCGAUAGAAAAUUUGAUUGACUUCUCCGUGGGCUUCCUGUCUGGAGAGUCAGUGAUGGCUAUAAGCAACAGAGGAUUGAGCAUCA
# B2: ENSG00000070961:be:win_6051|3pUTR|ENSG00000070961|bound_else_gene|NA|bound_elsewhere_windowed (ssRNA)
# RNA: GGGAGUUCUACAGUCCGACGAUCCAGAAAUUUCCAGAGCAUUAUGUAGGUAGAAAAAAAUGCAAGCAAGCUGUUAAAGAUCUUGGAUCCCAUUAUAUAGUAUGUAUAGCUGAAAUCUGUAAUUCAAUCACUUUUUCUCUUUUACAACAGAGGAUUGAGCAUCA
# B3: chr2:55866929:55867030:-|3pUTR|ENSG00000115380|msi1|FALSE|unique (ssRNA)
# RNA: GGGAGUUCUACAGUCCGACGAUCAUUUAAGUCAGCCAAAGAAUAUUGUUACCUUAAAGCACUAUUUUAUUUAUAGAUAUAUCUAGUGCAUCUACAUCUCUAUACUGUACACUCACCCAUAAUUCAAACAAUUACACCAUGGUACAACAGAGGAUUGAGCAUCA
# B4: chr6:119178661:119178762:-|3pUTR|ENSG00000111885|msi1|FALSE|unique (ssRNA)
# RNA: GGGAGUUCUACAGUCCGACGAUCGAAAGAAGCUUUGCCAAUUUUACUUAUUCGUGAUCAAUCAAGGAAAAUCUAAUAAAUUUUAGGCCAAAUAAGAAUAUAGCAUAUUUAGUAUGGUUAUAGUCAACACAGAGAUCACAACUUCAACAGAGGAUUGAGCAUCA
# B5: chr20:25297698:25297799:+|3pUTR|ENSG00000100994|msi1|FALSE|unique (ssRNA)
# RNA: GGGAGUUCUACAGUCCGACGAUCCCCAAGAGAGAGGGCAGGGAACAGGCUACUGUCCUUCCCUGUGGAAUUGCCGAGAAAUCUAGCACCUUGCAUGCUGGAUCUGGGCUGCGGGGAGGCUCUUUUUCUCCCUGGCCUCCAGUGCAACAGAGGAUUGAGCAUCA
# B6: chr18:3457781:3457936:+|CDS|ENSG00000177426|unk|FALSE|unique (ssRNA)
# RNA: GGGAGUUCUACAGUCCGACGAUCCAACACUCCUCCCCCUACUCCACCGGACCUCAACCAGGACUUCAGUGGAUUUCAGCUUCUAGUGGAUGUUGCACUCAAACGGGCUGCAGAGAUGGAGCUUCAGGCAAAACUUACAGCUUACAACAGAGGAUUGAGCAUCA
# B7: chr3:154276180:154276282:-|CDS|ENSG00000174953|unk|total|mutant (ssRNA)
# RNA: GGGAGUUCUACAGUCCGACGAUCUCAUCCUGCCGACUGGAAUGACACUAAAUCCAGAGACUGUGCAGUACUGUCAGCUAUUACCGACUUGAUCAAAACACAGGAAAAGGCAACUCCCAGGAACUUUCCGCCACGAUUCCAGGACAACAGAGGAUUGAGCAUCA
# B8: chr11:134151495:134151596:+|3pUTR|ENSG00000166086|unk|FALSE|unique (ssRNA)
# RNA: GGGAGUUCUACAGUCCGACGAUCUAGUGCCAUGGGAACCAGGUCUGAAAAAGUAGAGAGAAGUGAAAGUAGAGUCUGGGAAGUAGCUGCCUAUAACUGAGACUAGACGGAAAAGGAAUACUCGUGUAUUUUAAGAUAUGAAUGCAACAGAGGAUUGAGCAUCA
# B9: chr5:78475949:78476050:+|3pUTR|ENSG00000085365|msi1|FALSE|unique (ssRNA)
# RNA: GGGAGUUCUACAGUCCGACGAUCACCCACUGAAAAUUAAUAAUGGUACUUAUGAUUAAAAACGCAUUUAAUACUAACUGCAGUAGUUCUUUCAAGAAUCUUUAGAGAUAAGGAUUGCACAUUGGAAAAGUAAACCAUGUUUCACAACAGAGGAUUGAGCAUCA
# B10: chr1:6525536:6525637:-|3pUTR|ENSG00000162408|msi1|total|mutant (ssRNA)
# RNA: GGGAGUUCUACAGUCCGACGAUCACAGUUUGUGUGCCAUUAAAACAGAGAUUCCUCAGAAAGUUCUUCAGGGACCUGGUUAUCCGAAUCAGGAUAAAAAUAAGGAAACUGGGGCCAUUACAAUGUACCGAGAAGGAAGGAAGACAACAGAGGAUUGAGCAUCA
# B11: chr6:143501988:143502101:-|CDS|ENSG00000001036|unk|total|mutant (ssRNA)
# RNA: GGGAGUUCUACAGUCCGACGAUCUUCAUGUGGAGGAAAUCUUUUGAUGAAUAUUGGGCCCACACCCGAUGGCACCAUUUCUGCCGUUUUUGAGGAGCGACUGAGGCAAAUGGGGUCCUGGCUAAAAGUCAAUGGAGAAGCUAUCAACAGAGGAUUGAGCAUCA
# B12: chrX:13662881:13662996:+|CDS|ENSG00000176896|unk|FALSE|unique (ssRNA)
# RNA: GGGAGUUCUACAGUCCGACGAUCUCGAAUUCUCUGUCUUCCCAAGACGUUGCAAAACUCAGUGAAAUGAUUGUGCCUGAAAAUAGAGCCAUUCAAUUGAAACCUAAGGAAGAGCAUUUUGGGGAUGGUGACCCUGAAUCCACUCAACAGAGGAUUGAGCAUCA
# B13: chr12:39369705:39369875:-|CDS|ENSG00000139116|unk|FALSE|unique (ssRNA)
# RNA: GGGAGUUCUACAGUCCGACGAUCGGGUAUUAUUUCUCGAGCUGUUAAACACCUUUUUAAGAGUAUUGAAGAAAAAAAACACAUAGCAAUUAAAAAUGGGCUUCCUGCUCCAGAUUUUAAAGUGAAUGCCCAAUUCUUAGAGGUCAACAGAGGAUUGAGCAUCA
# B14: chr8:103442975:103443076:+|3pUTR|ENSG00000164934|msi1|FALSE|bound_elsewhere (ssRNA)
# RNA: GGGAGUUCUACAGUCCGACGAUCGGACUAGAUUAAUUGCAAACAUUUUAGUUAUAUGUGUAGAGCUUUAUUGUUACUCCUUUUAGCUACCCUGAAAAAUGAUCCUUAAAGGUGGCCUAGUUGGUAAGACUGUUUUAUCCUUAACAACAGAGGAUUGAGCAUCA
# B15: chr13:69700593:69701701:-|three_prime_utr|ENSG00000150361|control|control|control (ssRNA)
# RNA: GGGAGUUCUACAGUCCGACGAUCUUGAAUGGCAAGAAUGAGAACUUCCAGAGAUGAAAACUCUUCAAGAACAAGGAUCUCUGUAGCGUUACCUACUGAUGUUGAAAGAGUUAGUAGAUCAAACAGAAUAGUAGGAAACAAGAACAACAGAGGAUUGAGCAUCA
# B16: chr10:15076986:15077088:-|3pUTR|ENSG00000176244|unk|total|mutant (ssRNA)
# RNA: GGGAGUUCUACAGUCCGACGAUCUUUUCCUUUAAGAAGAUACCCAGCCGUGGGAUUGCUGGGCCGAAUGGCCGUUCUAUUUUCCGUUCCAUGAGAAAUUUCCGUGCUGUUUUUCACCGAGGUUGUACUAAUUUACAUUCCCACCAACAGAGGAUUGAGCAUCA
# B17: chr1:203741488:203741589:+|3pUTR|ENSG00000058668|msi1|total|mutant (ssRNA)
# RNA: GGGAGUUCUACAGUCCGACGAUCGCCAGUUCAUGUCCCUGACUCUCACCUCCCAUCCGAUAAAUGAAGCCCACCCCCCUUUCCCGAGUGAUGAGAGUCAAGAAGAGGGGAUGUAUGAACGGCCAAAUUCCCAUGUGAGAGGAACAACAGAGGAUUGAGCAUCA
# B18: chr22:20819776:20819877:-|CDS|ENSG00000241973|unk|total|mutant (ssRNA)
# RNA: GGGAGUUCUACAGUCCGACGAUCUGUAACGUUUUCACUUGAUCUUCCCGAAUACCUUUGCAAGUAUGCUAUCCCAUGCCUGACCGGAAUCUCGCGAGCAUUUGGGCGUUACAGCAACAUGGAAGAGUCUCUCCUCUCAAAGCUCAACAGAGGAUUGAGCAUCA
# B19: ENSG00000163399:stop:overlap|stop_codon|ENSG00000163399|stop_codon|NA|stop_codon (ssRNA)
# RNA: GGGAGUUCUACAGUCCGACGAUCUCAGAAAACUCAUCAUCAGGCGACGCCCUGGCGGCUGGGUGGAGAAGGAAACCUACUAUUAGCCCCCCGUCCUGCACGCCGUGGAGCAUCAGGCCACACACUCUGCAUCCGACACCCACCCAACAGAGGAUUGAGCAUCA
# B20: chrX:47571900:47572933:-|three_prime_utr|ENSG00000008056|control|control|control (ssRNA)
# RNA: GGGAGUUCUACAGUCCGACGAUCAAACCUGACUCCUCCUGGCCCUAAAUCCGGUUCUCACAUGUGGAAUCCCCAAGUCCUUUUAGAACCCCACUCGUGGUCACUUCAGGAUCUACUUCUGUUUUAGAACCUCCACAUUCCUGACAACAGAGGAUUGAGCAUCA
# B21: chr5:178210945:178211047:+|3pUTR|ENSG00000197451|unk|FALSE|unique (ssRNA)
# RNA: GGGAGUUCUACAGUCCGACGAUCCUGCUGCCGCUCUGCAGCCUGGACCUGUGGACCCUGGUUGUAAAGAGUAAAUUGUAUCUUAGGAAACCAGUGUCACCUUUUUUUCACCUUUUAAUUUUAUAUUAUUUGCGUCAUACAUUUCAACAGAGGAUUGAGCAUCA
# B22: chr5:113567122:113567223:+|CDS|ENSG00000047188|unk|total|mutant (ssRNA)
# RNA: GGGAGUUCUACAGUCCGACGAUCAAACUCUGAGAAUUGGGCUGUCGUUAAAGCUGCAUUGGUGGCAGGCAUGUAUCCUAAUUCCGUCCACGUGGACAGAGAGAAUCCCGUGUUGACAGGGCCAAAGGAGAAAAAAGUACGAUUCAACAGAGGAUUGAGCAUCA
# Molecular target: T1, UNK ZnF1-6 (called full-length)
# Test: nsRBNS (natural sequence RNA bind-n-seq); RBNS binding buffer (assumed for nsRBNS): 25 mM Tris pH 7.5, 150 mM KCl, 3 mM MgCl2, 0.01% Triton X-100, 500 ug/ml BSA, 20 U/ml SUPERase-In, 4 C; UNK is unkempt and MSI1 is Musashi-1; names of the RNAs are library labels; protein concentration not given here; high values mean tight binding
row,Binder,binding signal [enrichment R]
1,B1,0.908
2,B2,3.07
3,B3,0.713
4,B4,2.15
5,B5,0.621
6,B6,0.739
7,B7,0.522
8,B8,0.667
9,B9,0.536
10,B10,0.553
11,B11,0.836
12,B12,0.385
13,B13,2.36
14,B14,6.96
15,B15,0.541
16,B16,0.434
17,B17,0.866
18,B18,0.413
19,B19,0.811
20,B20,0.975
21,B21,0.916
22,B22,0.606
